Values joined by “and” are separate entries in the source; they are usually repeats but may differ in a detail not shown here. Equal values may be shown once. The inconclusive results got no clear call from the source; some entries with a clear call stand among them for comparison. Potencies beside an inconclusive call are fits to weak or partial responses and may not hold up. Where a structure was tested more than once in an assay, its records may differ in their call. Active and inactive are the calls of the source. The call rests on the fitted dose curve; in most records, active means well fitted inhibition curve with a large enough effect; inconclusive means small, poorly fitted or top-dose-only effect; inactive means flat fitted curve, though single readings scatter.
system: NIH3T3; test: Cytotoxic Profiling of Annotated Libraries Using Quantitative High-Throughput Screening (AID 1296008); conditions: Five cell lines viability, CellTiter-Glo ATP luminescence, 48-72 h; max response: stronger effect = lower value
How it was run: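 Compounds were pin-transferred onto cells and incubated 48 or 72 hr at 37 degree Celsius, 95% humidity. CellTiter-Glo was added, plates sat 10 min at room temperature, then ATP-coupled luminescence was imaged as the viability read-out.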
Further: nearly all actives have a fitted effect of over 60% in size.
On the % scale 0 is the no-effect control and ±100 the full control effect; potency means the concentration at half of the fitted maximal effect; tags describe the fitted curve by direction and shape.

Row | Compound | Potency | outcome | max response
1 | CC(C)Oc1ccc(C(=O)N[C@H](CNC(=O)CN(C)C)Cc2ccc(-c3cn4cccc([C@H](C)O)c4n3)cc2)cc1Cl | inconclusive: 16.6 µM [inhibitor, partial curve] | – | –
2 | c1ccc(-c2oc3ncnc(NC[C@@H]4CCCO4)c3c2-c2ccccc2)cc1 | inconclusive: 37.2 µM [inhibitor, single point] | – | –
3 | COc1cc(OC2CCN(C)CC2)ccc1Nc1ncc2c(n1)n(C1CCCC1)c(=O)n2C | active: 18.7 µM | – | –
4 | CCC(=O)N1CCN(c2ccc(-n3c(=O)ccc4cnc5ccc(-c6cnc7ccccc7c6)cc5c43)cc2C(F)(F)F)CC1 | active: 33.2 nM and active: 237 nM | – | –
5 | C=CC(=O)N1CCc2ccc(-n3c(=O)ccc4cnc5ccc(-c6cnn(C)c6)cc5c43)cc21 | inconclusive: 5.26 µM [inhibitor, full curve, poor fit] | – | –
6 | CC(=O)O[C@H]1C(=O)[C@@]2(C)C([C@H](OC(=O)c3ccccc3)[C@]3(O)C[C@H](OC(=O)[C@H](O)[C@@H](NC(=O)c4ccccc4)c4ccccc4)C(C)=C1C3(C)C)[C@]1(OC(C)=O)CO[C@@H]1C[C@@H]2O (stereo partly drawn) | active: 5.9 nM and active: 36 nM | – | –
7 | CCCc1nn(C)c2c(=O)[nH]c(-c3cc(S(=O)(=O)N4CCN(C)CC4)ccc3OCC)nc12 | inconclusive: 29.9 µM [inhibitor, partial curve, poor fit] | – | –
8 | COc1cc2c(cc1-c1c(C)noc1C)ncc1[nH]c(=O)n([C@H](C)c3ccccn3)c12 | inconclusive: 7.31 µM [inhibitor, partial curve] | – | –
9 | CN(C)CCCN1c2ccccc2CCc2ccc(Cl)cc21 | inconclusive: 29.9 µM [inhibitor, single point] | – | –
10 | Cc1ccc2c(c1)c1c(n2CCc2ccc(C)nc2)CCN(C)C1 | inconclusive: 23.1 µM [inhibitor, partial curve, poor fit] | – | –
11 | CCN1CCN(c2ccc(Nc3cc(N(C)C(=O)Nc4c(Cl)c(OC)cc(OC)c4Cl)ncn3)cc2)CC1 | inconclusive: 18.4 µM [inhibitor, single point] | inactive | –
12 | Nc1ccc(C(=O)c2cc3c(ccc4ccccc43)[nH]2)cc1 | inconclusive: 16.6 µM [inhibitor, partial curve] | – | –
13 | C=C1CCC2[C@](C)(CO)C(O)CC[C@]2(C)C1CC=C1C(=O)OCC1O (stereo partly drawn) | – | – | inactive: 3.77%
14 | COc1cccc2c1C(=O)c1c(O)c3c(c(O)c1C2=O)C[C@@](O)(C(=O)CO)C[C@@H]3O[C@H]1C[C@H](N)[C@@H](O)[C@H](C)O1 | active: 0.235 µM | – | –
15 | O=C(O)c1ccc(-n2nc(-c3ccccc3O)nc2-c2ccccc2O)cc1 | inconclusive: 11.9 µM [inhibitor, partial curve] | – | –
16 | CCc1c2c(nc3ccc(OC(=O)N4CCC(N5CCCCC5)CC4)cc13)-c1cc3c(c(=O)n1C2)COC(=O)[C@]3(O)CC | inconclusive: 21.1 µM [inhibitor, single point] and active: 14.8 µM | – | –
17 | CN(C)CCCNC(=O)c1ccc(-c2cc(O)c3ncccc3c2)cc1 | inconclusive: 23.1 µM [inhibitor, single point] | – | inactive: -2.36%
18 | CCc1cc(-c2n[nH]c(C)c2-c2ccc3c(c2)OCCO3)c(O)cc1O | active: 8.33 µM | – | –
19 | COc1ccc2c(c1)CC[C@@H](CN(C)CC(=O)O)[C@H]2c1ccccc1 | active: 7.43 µM | – | –
20 | COC(=O)Nc1nc2ccc(C(=O)c3ccccc3)cc2[nH]1 | active: 18.8 µM and active: 2.64 µM | – | –
21 | O=C1[C@H](Cc2ccc(O)cc2)N2C(=O)CCN(C(=O)NCc3ccccc3)[C@H]2CN1Cc1cccc2ccccc12 | inconclusive: 18.7 µM [inhibitor, partial curve, poor fit] | – | –
22 | c1nc2nc(Nc3ccc(N4CCOCC4)cc3)nc(NC3CCCCC3)c2[nH]1 | active: 1.48 µM and active: 2.24 µM | – | –
23 | Cc1csc(-c2nnc(Nc3ccc(Oc4ncccc4-c4ccnc(N)n4)cc3)c3ccccc23)c1 | inconclusive: 0.0148 µM [inhibitor, full curve] | – | –

system: MCC-13; test: qHTS assay to identify novel small-molecules to repurpose for Merkel cell carcinoma treatment (AID 1296009); conditions: MCC and control cell lines, CellTiter-Glo viability, 72 h; series mostly up to 46 µM
How it was run: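 qHTS format: cells treated with library compounds in DMSO across 8 (NPC) or 11 (MIPE) concentrations. Readout after 72 hr at 37 degree celsius was CellTiter-Glo luminescence.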

Row | Compound | Potency
24 | CC(C)Oc1ccc(C(=O)N[C@H](CNC(=O)CN(C)C)Cc2ccc(-c3cn4cccc([C@H](C)O)c4n3)cc2)cc1Cl | inconclusive: 5.26 µM [inhibitor, partial curve]
25 | COc1cc(OC2CCN(C)CC2)ccc1Nc1ncc2c(n1)n(C1CCCC1)c(=O)n2C | inconclusive: 16.6 µM [inhibitor, partial curve]
26 | CCC(=O)N1CCN(c2ccc(-n3c(=O)ccc4cnc5ccc(-c6cnc7ccccc7c6)cc5c43)cc2C(F)(F)F)CC1 | inconclusive: 0.118 µM [inhibitor, full curve]
27 | C=CC(=O)N1CCc2ccc(-n3c(=O)ccc4cnc5ccc(-c6cnn(C)c6)cc5c43)cc21 | inconclusive: 6.62 µM [inhibitor, full curve]
28 | Cc1cc(NS(=O)(=O)c2ccc(N)cc2)no1 | inactive
29 | CC(=O)O[C@H]1C(=O)[C@@]2(C)C([C@H](OC(=O)c3ccccc3)[C@]3(O)C[C@H](OC(=O)[C@H](O)[C@@H](NC(=O)c4ccccc4)c4ccccc4)C(C)=C1C3(C)C)[C@]1(OC(C)=O)CO[C@@H]1C[C@@H]2O (stereo partly drawn) | inconclusive: 0.118 µM [inhibitor, full curve]
30 | COc1cc2c(cc1-c1c(C)noc1C)ncc1[nH]c(=O)n([C@H](C)c3ccccn3)c12 | inconclusive: 16.6 µM [inhibitor, partial curve]
31 | CN(C)CCCN1c2ccccc2CCc2ccc(Cl)cc21 | inconclusive: 18.8 µM [inhibitor, single point]
32 | Nc1ccc(C(=O)c2cc3c(ccc4ccccc43)[nH]2)cc1 | inconclusive: 6.62 µM [inhibitor, full curve]
33 | COc1cccc2c1C(=O)c1c(O)c3c(c(O)c1C2=O)C[C@@](O)(C(=O)CO)C[C@@H]3O[C@H]1C[C@H](N)[C@@H](O)[C@H](C)O1 | active: 5.9 µM
34 | O=C(O)c1ccc(-n2nc(-c3ccccc3O)nc2-c2ccccc2O)cc1 | inconclusive: 7.5 µM [inhibitor, partial curve, poor fit]
35 | CCc1c2c(nc3ccc(OC(=O)N4CCC(N5CCCCC5)CC4)cc13)-c1cc3c(c(=O)n1C2)COC(=O)[C@]3(O)CC | inconclusive: 11.9 µM [inhibitor, partial curve, poor fit]
36 | CCc1cc(-c2n[nH]c(C)c2-c2ccc3c(c2)OCCO3)c(O)cc1O | inconclusive: 14.8 µM [inhibitor, partial curve]
37 | COc1ccc2c(c1)CC[C@@H](CN(C)CC(=O)O)[C@H]2c1ccccc1 | inconclusive: 6.62 µM [inhibitor, full curve]
38 | COC(=O)Nc1nc2ccc(C(=O)c3ccccc3)cc2[nH]1 | inconclusive: 0.266 µM [inhibitor, full curve]
39 | O=C1[C@H](Cc2ccc(O)cc2)N2C(=O)CCN(C(=O)NCc3ccccc3)[C@H]2CN1Cc1cccc2ccccc12 | inconclusive: 16.6 µM [inhibitor, partial curve]
40 | c1nc2nc(Nc3ccc(N4CCOCC4)cc3)nc(NC3CCCCC3)c2[nH]1 | inconclusive: 4.69 µM [inhibitor, partial curve]
41 | Cc1csc(-c2nnc(Nc3ccc(Oc4ncccc4-c4ccnc(N)n4)cc3)c3ccccc23)c1 | inconclusive: 2.64 µM [inhibitor, full curve]

From PubChem BioAssay (NCATS)
